The results in this text go back to PubChem BioAssay (NCATS).

This is one part of the list. Shown are side measurements of this screen, not its main read-out; they come without a call. Compounds called inactive in the main read-out are mostly missing here. The note in brackets gives the kind of curve behind each potency; many fits are weak.

Experiment [1] deals with Histamine N-methyltransferase (Homo sapiens) (UniProt P50135). Nature of the experiment: Confirmatory Screen for Target Class Profiling of Small Molecule Inhibitors of Methyltransferases (AID 1745852).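 Further: inhibitor potency for blocking SAH production.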 To be noted: MTase-Glo luminescence, SAH detection, recombinant enzyme; measured here: HNMT inhibition potency.
In experiment [2] the target is Nicotinamide N-methyltransferase (Homo sapiens) (UniProt P40261). The experiment is described as above. To be noted: MTase-Glo luminescence, SAH detection, recombinant enzyme; measured here: NNMT inhibition potency.
Tags describe the fitted curve by direction and shape.

UniProt P40261, sequence (P40261 whole entry, looked up): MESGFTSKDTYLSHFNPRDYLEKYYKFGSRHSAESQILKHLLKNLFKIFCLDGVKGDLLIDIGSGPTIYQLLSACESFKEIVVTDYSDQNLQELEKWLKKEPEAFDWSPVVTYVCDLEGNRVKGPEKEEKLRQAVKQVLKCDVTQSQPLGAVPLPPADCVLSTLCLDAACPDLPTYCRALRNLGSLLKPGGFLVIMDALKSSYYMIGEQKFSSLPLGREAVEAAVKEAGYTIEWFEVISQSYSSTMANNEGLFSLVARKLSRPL
UniProt P50135, sequence (P50135 whole entry, looked up): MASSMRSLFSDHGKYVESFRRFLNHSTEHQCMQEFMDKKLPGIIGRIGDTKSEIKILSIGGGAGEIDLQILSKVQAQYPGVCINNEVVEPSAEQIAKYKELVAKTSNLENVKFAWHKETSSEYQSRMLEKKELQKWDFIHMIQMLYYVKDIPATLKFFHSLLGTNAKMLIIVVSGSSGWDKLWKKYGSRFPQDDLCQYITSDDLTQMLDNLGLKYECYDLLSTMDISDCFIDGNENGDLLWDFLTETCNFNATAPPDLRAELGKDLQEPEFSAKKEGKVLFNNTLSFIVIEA

In the case of `CN(C)CCCNc1nc(CN2CCN(C(c3ccc(Cl)cc3)c3ccc(Cl)cc3)CC2)nc2ccccc12`, the IC50 in experiment [1] is 21.5 µM [falling, partial curve]; in experiment [2], 24.1 µM [falling, partial curve].
As to `O=C(CCc1nnc2n(CCc3ccccc3)c(=O)c3ccccc3n12)N1CCN(C2CCCCC2)CC1`, the IC50 in experiment [1] was 6.07 µM [falling, full curve]; in experiment [2], 9.61 µM [falling, full curve].
For `FC(F)(F)c1cccc(-c2nccn3c(C4CN(Cc5ccc6cn[nH]c6c5)C4)ncc23)c1`, the IC50 in experiment [1] is 19.2 µM [falling, partial curve]; in experiment [2] it was 17.1 µM [falling, partial curve, poor fit].
Regarding `COc1cc2nc(N3CCN(C(=O)c4ccco4)C4CCCCC43)nc(N)c2cc1OC` (stereo not drawn), the IC50 is 24.1 µM [falling, single point] in experiment [1] and 24.1 µM [falling, single point] in experiment [2].
Regarding `COc1cc(/C=C2\CCCN([C@@H](C)c3ccc(F)cc3)C2=O)ccc1-n1cnc(C)c1`, the IC50 was 21.5 µM [falling, partial curve] in experiment [1] and 27.1 µM [falling, partial curve, poor fit] in experiment [2].
As to `CN(CCc1ccc(Nc2ncc(-c3cccnc3)s2)cc1)Cc1ccccc1`, the IC50 was 13.6 µM [falling, partial curve] in experiment [1] and 17.1 µM [falling, partial curve] in experiment [2].
On to `CN(C)CCNC(=O)c1ccnc(-c2nnc3ccc(N(C)c4ccccc4)nn23)c1`, for which, in experiment [1], the half-maximal inhibitory concentration (IC50) is 31.2 µM [falling, partial curve].
In the case of `COc1cc2nc(N3CCCCC3)nc(NC3CCN(Cc4ccccc4)CC3)c2cc1OC`, the IC50 is 19.2 µM [falling, partial curve] in experiment [1] and 21.5 µM [falling, partial curve] in experiment [2].
With `COc1ccc(CCN(C)CCCOc2nsc(-c3ccccc3)n2)cc1OC`, the half-inhibitory concentration (IC50) in experiment [1] is 15.2 µM [falling, partial curve]; in experiment [2] it was 24.1 µM [falling, partial curve].
With `CCN(CC)CCCNC(=O)CCc1nnc2n(Cc3ccc(Cl)cc3)c(=O)c3ccccc3n12`, the IC50 in experiment [1] is 8.57 µM [falling, partial curve].
`CNC1CCN(C(Cc2cccc(-c3ccncc3)c2)C(=O)c2sc3c(F)ccc(F)c3c2Cl)CC1` (stereo not drawn): the 50% inhibitory concentration (IC50) in experiment [1] was 21.5 µM [falling, partial curve]; in experiment [2] it was 12.1 µM [falling, partial curve].
With `Nc1nc(NCc2ccc(Cl)cc2Cl)cc(C2CC(O)C2)n1` (stereo not drawn), the IC50 in experiment [1] was 17.1 µM [falling, partial curve]; in experiment [2], 27.1 µM [falling, partial curve, poor fit].
Take `CCN(CC)CCNC(=O)CCc1nnc2n(Cc3ccc(Cl)cc3)c(=O)c3ccccc3n12`: in experiment [1], the IC50 is 17.1 µM [falling, partial curve].
For the molecule `NC(N)=N/N=C/c1c(Cl)cccc1Cl`, the IC50 in experiment [1] was 21.7 µM [falling, partial curve]; in experiment [2] it was 15.3 µM [falling, partial curve].
On to `Cc1nc2c3ccccc3n3c(CCCC(=O)NCCCN(C)Cc4ccccc4)nnc3n2n1`, for which the IC50 in experiment [1] is 10.8 µM [falling, partial curve].
Turning to `O=C(NCc1cccc(Cl)c1)c1cnc2c(c1)N(C(=O)Cc1ccc(O)cc1)CCC2`, the IC50 in experiment [1] is 11.1 µM [falling, partial curve].
Consider `CCOc1ccccc1CN1CCC(Cc2nc(-c3cccnc3)n[nH]2)C1` (stereo not drawn), for which the IC50 in experiment [1] was 21.5 µM [falling, partial curve]; in experiment [2], 17.1 µM [falling, partial curve].
Take `CN(C)c1ccc(Nc2c3ccc(NC(=O)CCN4CCCC4)cc3nc3cc(NC(=O)CCN4CCCC4)ccc23)cc1`: the IC50 in experiment [1] was 3.83 µM [falling, full curve]; in experiment [2], 24.1 µM [falling, partial curve].
For the molecule `Cc1c[nH]c2nccc(Oc3c(F)cc(Nc4cc(Cl)nc(N)n4)cc3F)c12`, the concentration for half-maximal inhibition (IC50) in experiment [1] was 15.2 µM [falling, partial curve]; in experiment [2], 24.1 µM [falling, partial curve, poor fit].
For the molecule `Cc1ccc([C@@H]2CN(c3cc(N4CCC(O)CC4)ncn3)C[C@H]2N(C)C)cc1`, in experiment [1], the IC50 is 19.2 µM [falling, partial curve].
On to `COc1ccc(CNc2cc3c(cn2)CN(Cc2ccccc2)CCN3)cc1OC`, for which the IC50 was 1.24 µM [falling, full curve] in experiment [1] and 31.2 µM [falling, partial curve] in experiment [2].
As for `NC(=O)c1cnc(NCCc2ccc(O)c(Cl)c2)nc1NCc1ccccc1`, the IC50 is 27.1 µM [falling, single point] in experiment [1] and 0.108 µM [falling, full curve] in experiment [2].
